Test results taken from the supplement of paper PMC8728848.
The other results are listed elsewhere or left out.

Tests used:
Test in all cases: glycan array binding signal (z-score within array); higher = stronger binding
Conditions in all cases: glycan notation: IUPAC condensed, linker removed; mutation: N288D, K313I
[1] = molecular target: Neu5Ac(a2-3)Gal(b1-4)Glc
Summary of the method: (§1)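 The Consortium for Functional Glycomics database supplied 3228 glycan arrays, of which those lacking an available protein sequence were dropped. The binding signal, a within-array Z-score, was averaged across arrays of the same protein sequence and across linkers. Negative scores can be read as non-binding.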

[2] = molecular target: Neu5Ac(a2-3)Gal(b1-4)GlcNAc
Summary of the method: as §1

[3] = molecular target: Neu5Ac(a2-3)Gal(b1-4)GlcNAc(b1-2)Man
Summary of the method: as §1

[4] = molecular target: Neu5Ac(a2-3)Gal(b1-4)GlcNAc(b1-2)Man(a1-3)[GlcNAc(b1-4)][Neu5Ac(a2-3)Gal(b1-4)GlcNAc(b1-2)Man(a1-6)]Man(b1-4)GlcNAc(b1-4)GlcNAc
Summary of the method: as §1

[5] = molecular target: Neu5Ac(a2-3)Gal(b1-4)GlcNAc(b1-2)Man(a1-3)[Neu5Ac(a2-3)Gal(b1-4)GlcNAc(b1-2)Man(a1-6)]Man(b1-4)GlcNAc(b1-4)GlcNAc
Summary of the method: as §1

[6] = molecular target: Neu5Ac(a2-3)Gal(b1-4)GlcNAc(b1-2)Man(a1-3)[Neu5Ac(a2-3)Gal(b1-4)GlcNAc(b1-2)Man(a1-6)]Man(b1-4)GlcNAc(b1-4)[Fuc(a1-6)]GlcNAc
Summary of the method: as §1

[7] = molecular target: Neu5Ac(a2-3)Gal(b1-4)GlcNAc(b1-2)Man(a1-3)[Neu5Ac(a2-6)Gal(b1-4)GlcNAc(b1-2)Man(a1-6)]Man(b1-4)GlcNAc(b1-4)GlcNAc
Summary of the method: as §1

[8] = molecular target: Neu5Ac(a2-3)Gal(b1-4)GlcNAc(b1-2)[Neu5Ac(a2-3)Gal(b1-4)GlcNAc(b1-4)]Man(a1-3)[GlcNAc(b1-4)][Neu5Ac(a2-3)Gal(b1-4)GlcNAc(b1-2)[Neu5Ac(a2-3)Gal(b1-4)GlcNAc(b1-6)]Man(a1-6)]Man(b1-4)GlcNAc(b1-4)GlcNAc
Summary of the method: as §1

[9] = molecular target: Neu5Ac(a2-3)Gal(b1-4)GlcNAc(b1-2)[Neu5Ac(a2-3)Gal(b1-4)GlcNAc(b1-4)]Man(a1-3)[GlcNAc(b1-4)][Neu5Ac(a2-3)Gal(b1-4)GlcNAc(b1-4)Man(a1-6)]Man(b1-4)GlcNAc(b1-4)GlcNAc
Summary of the method: as §1

[10] = molecular target: Neu5Ac(a2-3)Gal(b1-4)GlcNAc(b1-2)[Neu5Ac(a2-3)Gal(b1-4)GlcNAc(b1-6)]Man(a1-6)[Neu5Ac(a2-3)Gal(b1-4)GlcNAc(b1-2)Man(a1-3)]Man(b1-4)GlcNAc(b1-4)GlcNAc
Summary of the method: as §1

[11] = molecular target: Neu5Ac(a2-3)Gal(b1-4)GlcNAc(b1-2)[Neu5Ac(a2-3)Gal(b1-4)GlcNAc(b1-6)]Man(a1-6)[Neu5Ac(a2-3)Gal(b1-4)GlcNAc(b1-2)Man(a1-3)][GlcNAc(b1-4)]Man(b1-4)GlcNAc(b1-4)GlcNAc
Summary of the method: as §1

[12] = molecular target: Neu5Ac(a2-3)Gal(b1-4)GlcNAc(b1-3)Gal
Summary of the method: as §1

[13] = molecular target: Neu5Ac(a2-3)Gal(b1-4)GlcNAc(b1-3)Gal(b1-3)GlcNAc
Summary of the method: as §1

[14] = molecular target: Neu5Ac(a2-3)Gal(b1-4)GlcNAc(b1-3)Gal(b1-4)GlcNAc
Summary of the method: as §1

[15] = molecular target: Neu5Ac(a2-3)Gal(b1-4)GlcNAc(b1-3)Gal(b1-4)GlcNAc(b1-2)Man(a1-3)[Neu5Ac(a2-3)Gal(b1-4)GlcNAc(b1-3)Gal(b1-4)GlcNAc(b1-2)Man(a1-6)]Man(b1-4)GlcNAc(b1-4)GlcNAc
Summary of the method: as §1

[16] = molecular target: Neu5Ac(a2-3)Gal(b1-4)GlcNAc(b1-3)Gal(b1-4)GlcNAc(b1-3)Gal(b1-4)GlcNAc
Summary of the method: as §1

[17] = molecular target: Neu5Ac(a2-3)Gal(b1-4)GlcNAc(b1-3)Gal(b1-4)GlcNAc(b1-3)Gal(b1-4)GlcNAc(b1-2)Man(a1-3)[Neu5Ac(a2-3)Gal(b1-4)GlcNAc(b1-3)Gal(b1-4)GlcNAc(b1-3)Gal(b1-4)GlcNAc(b1-2)Man(a1-6)]GalNAc
Summary of the method: as §1

[18] = molecular target: Neu5Ac(a2-3)Gal(b1-4)GlcNAc(b1-3)Gal(b1-4)GlcNAc(b1-3)GalNAc
Summary of the method: as §1

[19] = molecular target: Neu5Ac(a2-3)Gal(b1-4)GlcNAc(b1-3)Gal(b1-4)GlcNAc(b1-3)[Neu5Ac(a2-3)Gal(b1-4)GlcNAc(b1-3)Gal(b1-4)GlcNAc(b1-6)]GalNAc
Summary of the method: as §1

[20] = molecular target: Neu5Ac(a2-3)Gal(b1-4)GlcNAc(b1-3)Gal(b1-4)GlcNAc(b1-6)[Gal(b1-3)]GalNAc
Summary of the method: as §1

[21] = molecular target: Neu5Ac(a2-3)Gal(b1-4)GlcNAc(b1-3)Gal(b1-4)[Fuc(a1-3)]GlcNAc
Summary of the method: as §1

[22] = molecular target: Neu5Ac(a2-3)Gal(b1-4)GlcNAc(b1-3)GalNAc
Summary of the method: as §1

[23] = molecular target: Neu5Ac(a2-3)Gal(b1-4)GlcNAc(b1-3)[Neu5Ac(a2-3)Gal(b1-4)GlcNAc(b1-6)]GalNAc
Summary of the method: as §1

[24] = molecular target: Neu5Ac(a2-3)Gal(b1-4)GlcNAc(b1-6)GalNAc
Summary of the method: as §1

[25] = molecular target: Neu5Ac(a2-3)Gal(b1-4)GlcNAc(b1-6)[Gal(b1-3)]GalNAc
Summary of the method: as §1

[26] = molecular target: Neu5Ac(a2-3)Gal(b1-4)GlcNAc(b1-6)[Neu5Ac(a2-3)Gal(b1-3)]GalNAc
Summary of the method: as §1

[27] = molecular target: Neu5Ac(a2-3)Gal(b1-4)GlcNAc6S
Summary of the method: as §1

[28] = molecular target: Neu5Ac(a2-3)Gal(b1-4)[Fuc(a1-3)]GlcNAc
Summary of the method: as §1

[29] = molecular target: Neu5Ac(a2-3)Gal(b1-4)[Fuc(a1-3)]GlcNAc(b1-2)Man
Summary of the method: as §1

[30] = molecular target: Neu5Ac(a2-3)Gal(b1-4)[Fuc(a1-3)]GlcNAc(b1-3)Gal
Summary of the method: as §1

[31] = molecular target: Neu5Ac(a2-3)Gal(b1-4)[Fuc(a1-3)]GlcNAc(b1-3)Gal(b1-4)GlcNAc
Summary of the method: as §1

[32] = molecular target: Neu5Ac(a2-3)Gal(b1-4)[Fuc(a1-3)]GlcNAc(b1-3)Gal(b1-4)[Fuc(a1-3)]GlcNAc(b1-3)Gal(b1-4)[Fuc(a1-3)]GlcNAc
Summary of the method: as §1

[33] = molecular target: Neu5Ac(a2-3)Gal(b1-4)[Fuc(a1-3)]GlcNAc(b1-3)GalNAc
Summary of the method: as §1

[34] = molecular target: Neu5Ac(a2-3)Gal(b1-4)[Fuc(a1-3)]GlcNAc(b1-6)[Gal(b1-3)]GalNAc
Summary of the method: as §1

[35] = molecular target: Neu5Ac(a2-3)Gal(b1-4)[Fuc(a1-3)]GlcNAc(b1-6)[Neu5Ac(a2-3)Gal(b1-3)]GalNAc
Summary of the method: as §1

[36] = molecular target: Neu5Ac(a2-3)Gal(b1-4)[Fuc(a1-3)]GlcNAc6S
Summary of the method: as §1

[37] = molecular target: Neu5Ac(a2-3)Gal6S(b1-4)GlcNAc
Summary of the method: as §1

[38] = molecular target: Neu5Ac(a2-3)Gal6S(b1-4)[Fuc(a1-3)]GlcNAc
Summary of the method: as §1

B1: Langerin (Homo sapiens), Q9UJ71 (protein)
chain: STLNAQIPELKSDLEKASALNTKIRALQGSLENMSKLLKRQNDILQVVSQGWKYFKGNFYYFSLIPKTWYSAEQFCVSRNSHLTSVTSESEQEFLYKTAGGLIYWIGLTKAGMEGDWSWVDDTPFNKVQSARFWIPGEPNDAGNNEHCGNIKAPSLQAWNDAPCDITFLFICKRPYVPSEP
- glycan array binding signal (z-score) [1]: 0.038
- glycan array binding signal (z-score) [2]: -0.227
- glycan array binding signal (z-score) [3]: -0.022
- glycan array binding signal (z-score) [4]: -0.299
- glycan array binding signal (z-score) [5]: -0.329
- glycan array binding signal (z-score) [6]: -0.104
- glycan array binding signal (z-score) [7]: -0.34
- glycan array binding signal (z-score) [8]: -0.156
- glycan array binding signal (z-score) [9]: -0.189
- glycan array binding signal (z-score) [10]: -0.072
- glycan array binding signal (z-score) [11]: -0.35
- glycan array binding signal (z-score) [12]: -0.265
- glycan array binding signal (z-score) [13]: -0.184
- glycan array binding signal (z-score) [14]: -0.344
- glycan array binding signal (z-score) [15]: -0.171
- glycan array binding signal (z-score) [16]: -0.227
- glycan array binding signal (z-score) [17]: 0.041
- glycan array binding signal (z-score) [18]: -0.189
- glycan array binding signal (z-score) [19]: 0.135
- glycan array binding signal (z-score) [20]: 0.059
- glycan array binding signal (z-score) [21]: -0.224
- glycan array binding signal (z-score) [22]: -0.218
- glycan array binding signal (z-score) [23]: 0.075
- glycan array binding signal (z-score) [24]: -0.165
- glycan array binding signal (z-score) [25]: -0.298
- glycan array binding signal (z-score) [26]: -0.09
- glycan array binding signal (z-score) [27]: -0.294
- glycan array binding signal (z-score) [28]: -0.265
- glycan array binding signal (z-score) [29]: -0.159
- glycan array binding signal (z-score) [30]: -0.338
- glycan array binding signal (z-score) [31]: -0.02
- glycan array binding signal (z-score) [32]: 0.101
- glycan array binding signal (z-score) [33]: 0.034
- glycan array binding signal (z-score) [34]: 0.107
- glycan array binding signal (z-score) [35]: -0.125
- glycan array binding signal (z-score) [36]: -0.369
- glycan array binding signal (z-score) [37]: -0.223
- glycan array binding signal (z-score) [38]: -0.213
